Screen size: about 350,000 compounds; about 9,900 (2.8%) were called active. Inconclusive results, whose numbers are uncertain, are shown with a selection of clear calls. Calls come from the whole dose curve; as a rule, active = well fitted activation curve with a large enough effect; inconclusive = small, poorly fitted or top-dose-only effect; inactive = no such curve, though single readings can be large or run the other way. Potencies of inconclusive entries are left out as doubtful fits.
Experiment: A quantitative high throughput screen for small molecules that induce DNA re-replication in MCF 10a normal breast cells. For activity, positive = re-replication: % of control where 0% means no effect. Note: nearly all actives have a fitted effect of over 50% in size.
Conditions: MCF 10A DNA re-replication, Hoechst nuclear intensity, 48 h; activity, positive = re-replication: at 46.1 µM (top of the series)
Potency is the fitted concentration of half-maximal effect; tags give direction and shape of the fitted curve.

Row | SMILES | Potency | activity, positive = re-replication
1 | CC1=[N+](C)N(c2ccccc2)C(=O)C1N=Cc1ccccc1Cl (stereo unspecified) | inconclusive [activator, single point] | –
2 | CCCCCCSc1ccc([C@H]2N[C@@](CC(C)C)(C(=O)OC)[C@H]3C(=O)N(CC)C(=O)[C@@H]23)cc1 | – | inactive: 6.22%
3 | O=C(C(Cl)Cl)N1c2ccccc2OCC1c1ccccc1 (stereo unspecified) | inconclusive [activator, single point] | –
4 | CN1CCN(S(=O)(=O)c2ccc(Oc3ccc(F)c(Cl)c3)nc2)CC1 | inconclusive [activator, partial curve, poor fit] | –
5 | Cn1nc(C(=O)Nc2cc(Cl)ccc2N2CCCC2)c2ccccc2c1=O | inconclusive [activator, full curve, poor fit] | –
6 | CCCn1nc(C(=O)Nc2ccc(S(=O)(=O)Nc3nccs3)cc2)c2ccccc2c1=O | inconclusive [activator, single point] | –
7 | CCOc1ccc(S(=O)(=O)N(C(=O)c2ccco2)c2cc3sc(=O)oc3c3ccccc23)cc1 | inconclusive [activator, single point] | –
8 | Cc1cc(=O)n2nc(N3CCCC(C(=O)NCc4ccc(Cl)cc4)C3)sc2n1 (stereo unspecified) | inconclusive [activator, partial curve, poor fit] | –
9 | COc1ccc(C(C)NC(=O)c2ccc(Cl)cc2)cc1OC (stereo unspecified) | – | inactive: -42.3%
10 | CCn1cc(CN2N=C(C)CC2c2ccccc2)c(C)n1 (stereo unspecified) | inconclusive [activator, single point] | –
11 | COc1ccc(-n2nc(C(=O)NCC(=O)N3CCN(c4ccccc4)CC3)c3ccccc3c2=O)cc1OC | – | inactive: 10.9%
12 | CCN1C[C@@H]2[C@@H]3C(=O)N(Cc4ccccc4)C(=O)[C@@H]3[C@](Cc3ccccc3)(C1=O)N2C(=O)c1ccc(Br)cc1 | inconclusive [activator, single point] | –
13 | CCOc1ccc(NC(=O)Cn2nnc(C(=O)NCc3cccs3)c2N)cc1 | – | inactive: 0.315%
14 | CC(=O)Nc1ccc(C(=O)CSc2nnc(Cc3ccccc3)o2)cc1 | inconclusive [activator, full curve, poor fit] | –
15 | CN(CC(=O)N1CCN(Cc2ccccc2)CC1)S(=O)(=O)c1cccc2nsnc12 | – | inactive: 2.85%
16 | COc1cc2c(C#N)c(N3CCCCC3)nc(N)c2c(N)n1 | inconclusive [activator, partial curve] | –
17 | CCC(C)Sc1nc2c(cnn2-c2ccc(C)c(C)c2)c(=O)[nH]1 (stereo unspecified) | – | inactive: -1.01%
18 | COc1cc2c(cc1OC)C(C)N(CCc1ccc(Cl)cc1)CC2 (stereo unspecified) | inconclusive [activator, single point] | –
19 | COc1ccc(CCNC(=O)Cn2c(=O)cnc3ccccc32)cc1 | inconclusive [activator, single point] | –
20 | COc1ccc(-c2oc3ccc(N4CCOCC4)cc3c2/C=C/c2ccc(OC)c(OC)c2)cc1 | inconclusive [activator, partial curve, poor fit] | –
21 | CCOc1ccc(N=c2scc(-c3ccc(OC)cc3)n2CCO)cc1 | inconclusive [activator, partial curve] | –
22 | O=C(NCc1ccccc1)c1cc(-c2cccc(O)c2)on1 | inconclusive [activator, full curve, poor fit] | –

Row | SMILES | Potency | activity, positive = re-replication
23 | COc1ccc(C(=O)Nc2ccc(Cl)c(S(=O)(=O)N3CCOCC3)c2)cc1 | inconclusive [activator, single point] | –
24 | CCCCn1nc(C(=O)Nc2c(C)n(C)n(-c3ccccc3)c2=O)c2ccccc2c1=O | – | inactive: -3.96%
25 | CN(C)/C=C/C(=O)c1cnc(-c2ccccc2Cl)s1 | inconclusive [activator, single point] | –
26 | Cc1cnc(C(=O)OC(C)C(=O)Nc2cccc3ccccc23)cn1 (stereo unspecified) | inconclusive [activator, full curve, poor fit] | –
27 | COc1ccc(OCCNC(=O)c2cccc(Oc3ccc(C(F)(F)F)cc3[N+](=O)[O-])c2)cc1 | inconclusive [activator, single point] | –
28 | O=S(=O)(c1ccccc1F)N1CCN(Cc2cc3c(cc2Br)OCCO3)CC1 | inconclusive [activator, single point] | –
29 | O=C(Nc1ccc(Cl)c(Cl)c1)OCc1cnc(Cl)s1 | inconclusive [activator, single point] | –
30 | CC(Oc1ccc(Cl)cc1Cl)C(=O)Nc1ccncc1 (stereo unspecified) | inconclusive [activator, partial curve, poor fit] | –
31 | Nc1cc(C(F)(F)F)cc([N+](=O)[O-])c1N | inconclusive [activator, single point] | –
32 | CC(=O)N1N=C2c3ccccc3CCC2C1c1ccc(F)cc1 (stereo unspecified) | inconclusive [activator, single point] | –
33 | COc1ccc(/C(C)=N/Nc2nc3ccccc3nc2C)cc1 | active: 14.6 µM | –
34 | CCOc1ccc(N2C(=O)/C(=C/c3cccs3)N(C)C2=S)cc1 | inconclusive [activator, full curve] | –
35 | O=C(CSc1nnc(NC2CC2)s1)Nc1ccc(N2CCOCC2)cc1 | – | inactive: 5.32%
36 | O=C(NCCCn1ccnc1)Nc1ccc2c(c1)OCO2 | – | inactive: 1.2%
37 | COc1cc(NC(=O)NCCN2CCN(c3ccc(Cl)cc3)CC2)ccc1C | inconclusive [activator, partial curve, poor fit] | –
38 | O=C(Cc1c(F)cccc1Cl)Nc1cccc(S(=O)(=O)NC2=NCCCCC2)c1 | – | inactive: 9.48%
39 | COc1ccc2c(c1)C1NC(=S)NC(C)(O2)C1C(=O)Nc1ccc(C)cc1C (stereo unspecified) | – | inactive: -8.57%
40 | CC(=O)Nc1ccc(S(=O)(=O)N2CCC(NC(=O)c3ccccc3)CC2)cc1 | inconclusive [activator, single point] | –
41 | CCC(=O)Nc1ccccc1-c1nnn(CC(=O)N2c3ccccc3CC2C)n1 (stereo unspecified) | inconclusive [activator, single point] | –
42 | CCOC(=O)c1c(C)[nH]c(C(=O)CN(C)CC(=O)Nc2ccccc2Cl)c1C | inconclusive [activator, full curve] | –
43 | Cc1[nH]c2ccccc2c1C(=O)C(=O)N1CCCc2ccccc21 | inconclusive [activator, single point] | –
44 | c1ccc(-c2cc(CSc3nc4ccccc4[nH]3)on2)cc1 | inconclusive [activator, partial curve, poor fit] | –

Row | SMILES | Potency | activity, positive = re-replication
45 | Cn1c(NCCCO)nc2c(c1=O)C1(CCCCC1)Cc1ccccc1-2 | active: 18.4 µM | –
46 | O=C(CSCc1nc2ccccc2[nH]1)Nc1ccc(Oc2ccccc2)cc1 | inconclusive [activator, partial curve, poor fit] | –
47 | Cc1cc(C)c2c(N)c(S(=O)(=O)c3ccccc3)sc2n1 | inconclusive [activator, partial curve, poor fit] | –
48 | COc1ccc(OC)c(NC(=O)c2sc3nc(Cc4ccccc4)cc(C(F)(F)F)c3c2N)c1 | inconclusive [activator, single point] | –
49 | CCc1c(C(=O)N/N=C/c2ccc(C)o2)csc1C | inconclusive [activator, partial curve, poor fit] | –
50 | COC(=O)c1cccc(C#CC(NP(=O)(c2ccccc2)c2ccccc2)c2ccccc2)c1 (stereo unspecified) | inconclusive [activator, partial curve, poor fit] | –
51 | O=C(CNC(=O)C1COc2ccccc2O1)N/N=C/c1ccc(O)cc1O (stereo unspecified) | inconclusive [activator, full curve, poor fit] | –
52 | O=C(Nc1ccc([N+](=O)[O-])cc1)Nc1nc(-c2ccc(Cl)s2)cs1 | active: 2.91 µM | –
53 | Nn1c(Cc2cccc3ccccc23)nnc1SCc1ccc(Cl)c(Cl)c1 | inconclusive [activator, single point] | –
54 | Cc1ccccc1OCCC(=O)OCC(=O)c1c(N)n(CC(C)C)c(=O)n(C)c1=O | inconclusive [activator, partial curve, poor fit] | –
55 | CC(=NCCc1ccccc1)C1=C(O)C(c2ccccc2)OC1=O (stereo unspecified) | inconclusive [activator, single point] | –
56 | C/C=C/c1ccc(OCCCCN2CC(C)CC(C)C2)c(OC)c1 (stereo unspecified) | inconclusive [activator, partial curve, poor fit] | –
57 | Cc1ccc(O)c(/C=N/NC(=O)COc2ccc3c(C)cc(=O)oc3c2)c1 | inconclusive [activator, single point] | –
58 | COc1cc(NS(=O)(=O)c2ccc(NC(=S)NC(=O)/C=C/c3ccc(OC)c(OC)c3)cc2)ncn1 | inconclusive [activator, single point] | –
59 | CCOc1cc(C=O)ccc1OCC(N)=O | – | inactive: -0.0194%
60 | Cc1cccc2cc(C#N)c(NCCNS(=O)(=O)c3ccccc3)nc12 | active: 20.6 µM | –
61 | CCOc1ccc(CN(C)C(C)C(=O)Nc2ccc([N+](=O)[O-])cc2Cl)cc1OC (stereo unspecified) | – | inactive: -10.8%
62 | Cc1ccc(-n2nc3ccc(NC(=O)/C=C/c4ccco4)cc3n2)cc1 | active: 11.6 µM | –
63 | CC(C)(C)c1ccc(C(=O)N/N=C/c2ccccn2)cc1 | inconclusive [activator, partial curve, poor fit] | –
64 | COc1ccc(CCNC(=O)CSc2nnc(CNc3ccc(Cl)cc3)o2)cc1OC | – | inactive: 3.46%
65 | O=C(CS(=O)(=O)c1ccccc1)Nc1nnc(-c2cccs2)o1 | – | inactive: 2.37%
66 | OC(COC(c1ccccc1)c1ccccc1)CN1CCN(c2cccc(Cl)c2)CC1 (stereo unspecified) | inconclusive [activator, partial curve] | –
